What all share (experiment): glycan array binding signal (z-score within array); higher = stronger binding
Conditions in all cases: glycan notation: IUPAC condensed, linker removed

In assay [1] the target is Gal(b1-4)GlcNAc(b1-3)Gal(b1-4)GlcNAc(b1-3)Gal(b1-4)GlcNAc(b1-2)[Gal(b1-4)GlcNAc(b1-3)Gal(b1-4)GlcNAc(b1-3)Gal(b1-4)GlcNAc(b1-6)]Man(a1-6)[Gal(b1-4)GlcNAc(b1-3)Gal(b1-4)GlcNAc(b1-3)Gal(b1-4)GlcNAc(b1-2)Man(a1-3)]Man(b1-4)GlcNAc(b1-4)[Fuc(a1-6)]GlcNAc. The gist of the method:
(§1)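 The binding signal is a Z-score computed within each array and averaged over linkers. Arrays of the same protein sequence at different concentrations or buffers were also averaged together. Data originate from 3228 arrays in the Consortium for Functional Glycomics database, kept only where the protein sequence was available.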

The target of assay [2] is Gal(b1-4)GlcNAc(b1-3)Gal(b1-4)GlcNAc(b1-3)Gal(b1-4)GlcNAc(b1-3)Gal(b1-4)GlcNAc(b1-2)Man(a1-3)[Gal(b1-4)GlcNAc(b1-3)Gal(b1-4)GlcNAc(b1-3)Gal(b1-4)GlcNAc(b1-3)Gal(b1-4)GlcNAc(b1-2)Man(a1-6)]Man(b1-4)GlcNAc(b1-4)GlcNAc. The gist of the method:
as §1

Assay [3] has as its target Gal(b1-4)GlcNAc(b1-3)Gal(b1-4)GlcNAc(b1-3)Gal(b1-4)GlcNAc(b1-3)Gal(b1-4)GlcNAc(b1-2)Man(a1-3)[Gal(b1-4)GlcNAc(b1-3)Gal(b1-4)GlcNAc(b1-3)Gal(b1-4)GlcNAc(b1-3)Gal(b1-4)GlcNAc(b1-2)Man(a1-6)]Man(b1-4)GlcNAc(b1-4)[Fuc(a1-6)]GlcNAc. The method in brief: as §1
The target of assay [4] is Gal(b1-4)GlcNAc(b1-3)Gal(b1-4)GlcNAc(b1-3)Gal(b1-4)GlcNAc(b1-3)Gal(b1-4)GlcNAc(b1-2)[Gal(b1-4)GlcNAc(b1-3)Gal(b1-4)GlcNAc(b1-3)Gal(b1-4)GlcNAc(b1-3)Gal(b1-4)GlcNAc(b1-6)]Man(a1-6)[Gal(b1-4)GlcNAc(b1-3)Gal(b1-4)GlcNAc(b1-3)Gal(b1-4)GlcNAc(b1-3)Gal(b1-4)GlcNAc(b1-2)Man(a1-3)]Man(b1-4)GlcNAc(b1-4)[Fuc(a1-6)]GlcNAc. The gist of the method:
as §1

Assay [5] deals with Gal(b1-4)GlcNAc(b1-3)Gal(b1-4)GlcNAc(b1-3)Gal(b1-4)GlcNAc(b1-3)Gal(b1-4)GlcNAc(b1-3)Gal(b1-4)GlcNAc(b1-2)Man(a1-3)[Gal(b1-4)GlcNAc(b1-3)Gal(b1-4)GlcNAc(b1-3)Gal(b1-4)GlcNAc(b1-3)Gal(b1-4)GlcNAc(b1-3)Gal(b1-4)GlcNAc(b1-2)Man(a1-6)]Man(b1-4)GlcNAc(b1-4)GlcNAc. The gist of the method:
as §1

The target in assay [6] is Gal(b1-4)GlcNAc(b1-3)Gal(b1-4)GlcNAc(b1-3)Gal(b1-4)GlcNAc(b1-3)Gal(b1-4)GlcNAc(b1-3)Gal(b1-4)GlcNAc(b1-2)Man(a1-3)[Gal(b1-4)GlcNAc(b1-3)Gal(b1-4)GlcNAc(b1-3)Gal(b1-4)GlcNAc(b1-3)Gal(b1-4)GlcNAc(b1-3)Gal(b1-4)GlcNAc(b1-2)Man(a1-6)]Man(b1-4)GlcNAc(b1-4)[Fuc(a1-6)]GlcNAc. The method in brief:
as §1

For assay [7], the target named is Gal(b1-4)GlcNAc(b1-3)Gal(b1-4)GlcNAc(b1-3)Gal(b1-4)GlcNAc(b1-3)Gal(b1-4)GlcNAc(b1-3)Gal(b1-4)GlcNAc(b1-2)[Gal(b1-4)GlcNAc(b1-3)Gal(b1-4)GlcNAc(b1-3)Gal(b1-4)GlcNAc(b1-3)Gal(b1-4)GlcNAc(b1-3)Gal(b1-4)GlcNAc(b1-6)]Man(a1-6)[Gal(b1-4)GlcNAc(b1-3)Gal(b1-4)GlcNAc(b1-3)Gal(b1-4)GlcNAc(b1-3)Gal(b1-4)GlcNAc(b1-3)Gal(b1-4)GlcNAc(b1-2)Man(a1-3)]Man(b1-4)GlcNAc(b1-4)[Fuc(a1-6)]GlcNAc. The method in brief:
as §1

For assay [8], the target named is Gal(b1-4)GlcNAc(b1-3)Gal(b1-4)GlcNAc(b1-3)Gal(b1-4)GlcNAc(b1-3)Gal(b1-4)GlcNAc(b1-3)Gal(b1-4)GlcNAc(b1-3)Gal(b1-4)GlcNAc(b1-2)Man(a1-3)[Gal(b1-4)GlcNAc(b1-3)Gal(b1-4)GlcNAc(b1-3)Gal(b1-4)GlcNAc(b1-3)Gal(b1-4)GlcNAc(b1-3)Gal(b1-4)GlcNAc(b1-3)Gal(b1-4)GlcNAc(b1-2)Man(a1-6)]Man(b1-4)GlcNAc(b1-4)GlcNAc. The method in brief: as §1
Assay [9] has as its target Gal(b1-4)GlcNAc(b1-3)Gal(b1-4)GlcNAc(b1-3)GalNAc. The gist of the method: as §1
The target of assay [10] is Gal(b1-4)GlcNAc(b1-3)Gal(b1-4)GlcNAc(b1-3)[Gal(b1-4)GlcNAc(b1-3)Gal(b1-4)GlcNAc(b1-6)]GalNAc. The method in brief: as §1
Assay [11] has as its target Gal(b1-4)GlcNAc(b1-3)Gal(b1-4)GlcNAc(b1-6)[Gal(b1-3)]GalNAc. The method in brief:
as §1

The target in assay [12] is Gal(b1-4)GlcNAc(b1-3)Gal(b1-4)[Fuc(a1-3)]GlcNAc(b1-3)Gal(b1-4)[Fuc(a1-3)]GlcNAc. The gist of the method:
as §1

Assay [13] deals with Gal(b1-4)GlcNAc(b1-3)GalNAc. The method in brief: as §1
Assay [14] concerns the target Gal(b1-4)GlcNAc(b1-3)[Fuc(a1-3)GlcNAc(b1-6)]Gal(b1-4)Glc. The method in brief: as §1
For assay [15], the target named is Gal(b1-4)GlcNAc(b1-3)[Gal(b1-4)GlcNAc(b1-6)]Gal(b1-4)GlcNAc. The gist of the method: as §1
The target in assay [16] is Gal(b1-4)GlcNAc(b1-3)[Gal(b1-4)GlcNAc(b1-6)]GalNAc. The gist of the method:
as §1

In assay [17] the target is Gal(b1-4)GlcNAc(b1-3)[GlcNAc(b1-6)]Gal(b1-4)GlcNAc. The gist of the method:
as §1

The target in assay [18] is Gal(b1-4)GlcNAc(b1-6)Gal(b1-4)GlcNAc. The method in brief:
as §1

For assay [19], the target named is Gal(b1-4)GlcNAc(b1-6)Gal(b1-4)GlcNAc(b1-6)GalNAc. The method in brief: as §1

This is one part of the list.

B1: GSL-I (Griffonia simplicifolia) (protein)
chain: FNLPNFWSDVKDNIIFQGDANTTAGTLQLCKTNQYGNPLQYRAGRALYSDPVQLWDNKTGSVASFYTEFTFFLKITGDGPADGLAFFLAPPDSDVKDAGAYLGLFNKSTATQPSKNQVVAVEFDTWKNTDFPEPSYRHIGINVNSIVSVATKRWEDSDIFSGKIATARISYDGSAKILTVVLSYPDGADYILSHSVDLSKNLPNPIRVGISASTGANQFLTVYVLSWRFSSALQSTSVNAAMGPEIIRTVV
As for B1, the “glycan array binding signal (z-score)” value was -0.162 in [1]; -0.171 in assay [2]; 0.038 in [3]; -0.244 in [4]; -0.259 in [5]; -0.044 in assay [6]. Further, the “glycan array binding signal (z-score)” value in assay [7] is 0.4; in [8] it was 0.02; in assay [9], 0.65; in assay [10], 0.781; in assay [11] it was 0.727; in [12] it was -0.262. Further, the “glycan array binding signal (z-score)” value in [13] is -0.195; in assay [14], -0.051; in assay [15] it was -0.208; in [16] it was -0.312; in [17], -0.209; in [18], -0.238. Besides, in assay [19], the “glycan array binding signal (z-score)” value is -0.305.

Source of the values: the supplement of paper PMC8728848.
